We go through 44 sequences from the supplement of paper PMC11417369.

± gives the standard deviation of the averaged measurements. Some of the results follow.

In the assay the test system is PfAP2-LT AP2 domain (GST-tagged). As to the kind of experiment: gcPBM binding intensity (ln(normalized median fluorescence intensity)); higher = stronger DNA binding. In outline: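 In this array assay, P. falciparum DNA-binding domains with a GST tag, expressed in E. coli, were applied for 1 h to primer-extended double-stranded 36-bp intergenic genomic probes and negative controls on an Agilent 4 × 180k array. Bound protein was visualised with Alexa488 anti-GST antibody at 488 nm. Binding intensity is the highest Masliner-normalised natural-log median intensity across replicate spots of either probe orientation.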
With “ACATATATTTAAAAATGTACTTACATATATTTTTTA [XGTACX_site6050]”, the “gcPBM binding intensity (ln)” value came out at 8.37 ± 0.48.

Turning to “TTTTATACATATTTTACACACTAAAATATACATATA [CACACA_site324]”, the “gcPBM binding intensity (ln)” value was 8.75 ± 0.45.

In the case of “GAAGTATTTATTTATGCATGCAAATATACAAAAAAA [TGCATGCA_site975]”, the “gcPBM binding intensity (ln)” value turned out to be 8.84 ± 0.3.

As to “TTATGTTGTAAATGCACACATACATAAACTCAGTTT [CACACA_site5639]”, the “gcPBM binding intensity (ln)” value turned out to be 9.05 ± 0.38.

In the case of TTATTATTATTACTAGTGCATTAATTATATATGTAA, the “gcPBM binding intensity (ln)” value is 8.55 ± 0.42.

As for “TTTTTTTTTTCTGAAAGTACTAATTTCCTGGAGGAA [XGTACX_site759]”, the “gcPBM binding intensity (ln)” value turned out to be 8.19 ± 0.48.

In the case of “TAAATATTTTTAGATGCATGCAATAATTACCCAAAG [TGCATGCA_site636]”, the “gcPBM binding intensity (ln)” value was determined as 8.86 ± 0.28.

For the sequence “ATAAAATAAATATTTTGTTATTTATTTAATCTAATA [XGTACX_negctrl_site404]”, the “gcPBM binding intensity (ln)” value was 8.2 ± 0.59.

For the sequence “ACCTCATAATATTTAACACACAAAATTAAATGTATG [CACACA_site6898]”, the “gcPBM binding intensity (ln)” value worked out at 8.96 ± 0.34.

As for “TTTCAAAAAAATAATGTGCACATTAGAAAATAAATA [GTGCAC_site9416]”, the “gcPBM binding intensity (ln)” value turned out to be 8.79 ± 0.45.

As for “CTTATCAAAAAAAAAGCATGCCACAGGCAAAAGGTA [TGCATGCA_site574]”, the “gcPBM binding intensity (ln)” value is 8.97 ± 0.47.

“ACATATAAATATATTACACACACACTAAAAAAATAA [CACACA_site6209]”: the “gcPBM binding intensity (ln)” value was 9.69 ± 0.27.

With “CACCTTATAAATACTGCACACATAAAATATATATTA [CACACA_site8908]”, the “gcPBM binding intensity (ln)” value was found to be 9.03 ± 0.39.

For the sequence “ATATATATATATATATGTACATATATACATATACAT [XGTACX_site2350]”, the “gcPBM binding intensity (ln)” value worked out at 9.85 ± 0.38.

As for “AAAATATAATATAATGCACACATAAAACAAAAAAAA [CACACA_site8989]”, the “gcPBM binding intensity (ln)” value was determined as 9.05 ± 0.4.

In the case of “GAATAATATATATATTGTACTTTTTATTTATATTAT [XGTACX_site3180]”, the “gcPBM binding intensity (ln)” value is 8.79 ± 0.37.

In the case of “AAAAAAAAATTAATATATAAAAGGATATATATATAT [GTGCAC_negctrl_site449]”, the “gcPBM binding intensity (ln)” value came to 8.94 ± 0.24.

Take “ATATATATATTTATATGTACGAAATATAAAAAAAAA [XGTACX_site5054]”: the “gcPBM binding intensity (ln)” value turned out to be 8.69 ± 0.46.

For “CTTTTTTTTTTTTTTACACACCCAAATCACATACAT [CACACA_site4051]”, the “gcPBM binding intensity (ln)” value is 8.96 ± 0.5.

On to “TGAACACACGAGCACACACACACATCTATATTTATA [CACACA_site6607]”, for which the “gcPBM binding intensity (ln)” value was found to be 10 ± 0.28.

Consider “TGGAATAATACGCGTACACACATATATATATTAATA [CACACA_site131]”, for which the “gcPBM binding intensity (ln)” value worked out at 9.19 ± 0.45.

Consider “AGGTATCAAAAATATGCATGCAATATTTTATGTAAT [TGCATGCA_site1055]”, for which the “gcPBM binding intensity (ln)” value turned out to be 9.02 ± 0.38.

Consider “ATATAAAAATGTGTATGTACACACTTTATTTTTAAT [XGTACX_site5272]”, for which the “gcPBM binding intensity (ln)” value was determined as 9.38 ± 0.29.

For “ATCCTTTATTTTTTTTGTACATAAAAATAACTCGAG [XGTACX_site3885]”, the “gcPBM binding intensity (ln)” value came to 8.95 ± 0.54.

Consider “TTAAAAAACCTTAGATGTACAGTTATATATAAAATA [XGTACX_site6688]”, for which the “gcPBM binding intensity (ln)” value is 8.54 ± 0.4.

Regarding “AAATTACAAATACAAACACACAAATGTTTTTCATTC [CACACA_site3552]”, the “gcPBM binding intensity (ln)” value was found to be 8.78 ± 0.42.

As to “TTTTTCTATAAAAAATGTACATATTTTATGAAGGAA [XGTACX_site821]”, the “gcPBM binding intensity (ln)” value was 8.18 ± 0.31.

Regarding “AAAATAAAAATATTCACACATACAAAAATTATACAA [CACACA_site5136]”, the “gcPBM binding intensity (ln)” value is 8.79 ± 0.52.

For “CATTAATAAAAAAAAAGTACAAAAAATATATATATT [XGTACX_site2091]”, the “gcPBM binding intensity (ln)” value worked out at 8.71 ± 0.57.

In the case of “ATTTTTTTACTGTAACCATATTTTTCCCTTTTATTC [CACACA_negctrl_site1143]”, the “gcPBM binding intensity (ln)” value is 8.86 ± 0.63.

For the sequence “ATAATATATATATATAGTACATATATATAATATTCT [XGTACX_site2445]”, the “gcPBM binding intensity (ln)” value was 8.66 ± 0.4.

With “TTTTTTTTTTTTTTTTGTACGTATCAAAAAATTTGT [XGTACX_site1023]”, the “gcPBM binding intensity (ln)” value came to 8.5 ± 0.31.

For the sequence “AAAAATAAATTTAGTTGTACTTTATTATTTTAAATA [XGTACX_site3067]”, the “gcPBM binding intensity (ln)” value is 8.28 ± 0.37.

With “AATCAATAAATAAAAACATGCATATATATATATATA [TGCATGCA_site438]”, the “gcPBM binding intensity (ln)” value stood at 9.9 ± 0.38.

For the sequence “AAAAAAAAAAAAATACGTACATACATACCTACATAT [XGTACX_site233]”, the “gcPBM binding intensity (ln)” value worked out at 8.98 ± 0.41.

With “TATATATATATGTGTACACAATTTATCTGTATTTAT [CACACA_site5945]”, the “gcPBM binding intensity (ln)” value came to 9.34 ± 0.32.

Take “AAGAAAAACTTTACGTGTACCAAACATCCTGCCAAC [XGTACX_site598]”: the “gcPBM binding intensity (ln)” value came to 9.04 ± 0.27.

Consider “ATAGACAGCGCACAAACACACAAACACCCACCCACA [CACACA_site8043]”, for which the “gcPBM binding intensity (ln)” value was 9.99 ± 0.31.

Regarding “TATATTGATGATGATAGTACGTATGATTAGAAAAAA [XGTACX_site8989]”, the “gcPBM binding intensity (ln)” value came out at 8.74 ± 0.48.

As for “AGTGATACTAATTTTTGTACGCATAAAAGAATATTC [XGTACX_site6055]”, the “gcPBM binding intensity (ln)” value stood at 8.67 ± 0.24.

Take “TAGGAAAAGAAAAGCACACACATAAATAAATATATA [CACACA_site504]”: the “gcPBM binding intensity (ln)” value came out at 9.34 ± 0.43.

On to “TAATTTATTATATTTTGTACGTAAAATTATTATTGT [XGTACX_site8155]”, for which the “gcPBM binding intensity (ln)” value was determined as 8.64 ± 0.52.

With “AATATTTATTTTACATGTACTTATTTTTCTTTTAAC [XGTACX_site3631]”, the “gcPBM binding intensity (ln)” value was 9.29 ± 0.45.

For the sequence “AATATATATTTATATTGTACATATATATATATTTCT [XGTACX_site2603]”, the “gcPBM binding intensity (ln)” value turned out to be 8.76 ± 0.42.
